Data on 43 compounds can be found in paper PMC4336329 (PLoS ONE, 2015).

The whole screen tested about 310,000 compounds, of which about 14,000 (4.5%) showed an effect of 50% or more. The effect is printed as a negative number. The list shows a part of the results.
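Also: peak tail current of the secondary pulse compared with the same well before compound.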

In the assay the target is human ether-à-go-go-related gene (hERG) potassium channel (human, UniProt Q12809). The assay can be described thus: primary screen, population patch clamp on CHO cells stably expressing hERG.
Sequence of human ether-à-go-go-related gene (hERG) potassium channel (Q12809 whole entry, looked up): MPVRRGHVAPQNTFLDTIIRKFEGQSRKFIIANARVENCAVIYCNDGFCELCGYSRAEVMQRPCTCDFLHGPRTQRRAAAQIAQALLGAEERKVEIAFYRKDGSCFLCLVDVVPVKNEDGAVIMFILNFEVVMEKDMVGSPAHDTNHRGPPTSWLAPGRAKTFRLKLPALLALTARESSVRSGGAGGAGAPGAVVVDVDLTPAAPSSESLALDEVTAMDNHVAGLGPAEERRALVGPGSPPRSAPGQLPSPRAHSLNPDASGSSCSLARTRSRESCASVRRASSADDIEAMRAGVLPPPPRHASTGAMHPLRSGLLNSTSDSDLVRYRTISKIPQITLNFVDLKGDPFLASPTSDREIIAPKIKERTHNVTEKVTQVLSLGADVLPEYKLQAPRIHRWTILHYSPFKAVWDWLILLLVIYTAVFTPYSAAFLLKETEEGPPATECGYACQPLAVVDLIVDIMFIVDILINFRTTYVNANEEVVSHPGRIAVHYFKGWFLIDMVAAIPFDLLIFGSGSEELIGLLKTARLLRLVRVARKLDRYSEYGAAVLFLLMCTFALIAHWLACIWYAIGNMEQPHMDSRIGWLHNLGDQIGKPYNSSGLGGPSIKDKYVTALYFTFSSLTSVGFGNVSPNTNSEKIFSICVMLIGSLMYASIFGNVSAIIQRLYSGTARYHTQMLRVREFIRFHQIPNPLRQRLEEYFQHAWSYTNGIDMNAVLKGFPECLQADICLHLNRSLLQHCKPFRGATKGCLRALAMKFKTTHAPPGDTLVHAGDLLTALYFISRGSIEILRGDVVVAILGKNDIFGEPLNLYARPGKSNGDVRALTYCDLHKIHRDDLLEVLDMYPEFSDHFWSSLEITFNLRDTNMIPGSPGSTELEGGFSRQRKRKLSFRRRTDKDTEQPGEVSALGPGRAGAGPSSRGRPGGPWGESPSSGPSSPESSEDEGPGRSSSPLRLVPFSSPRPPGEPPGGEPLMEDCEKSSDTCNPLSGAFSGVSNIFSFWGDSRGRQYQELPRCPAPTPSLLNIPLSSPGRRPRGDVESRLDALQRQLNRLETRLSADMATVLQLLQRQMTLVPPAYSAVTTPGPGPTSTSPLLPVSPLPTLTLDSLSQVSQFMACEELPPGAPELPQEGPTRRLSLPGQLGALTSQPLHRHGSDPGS
On to `Cc1cc(C)n(S(=O)(=O)c2ccc(F)cc2)n1`, for which the “hERG current change (%, negative = inhibition) at 10uM” value is listed as -0.435%.
Regarding `Cc1ccc(-c2[nH]ncc2C(=O)c2cccc(F)c2)c(O)c1`, the “hERG current change (%, negative = inhibition) at 10uM” value came to 4.16%.
On to `Cc1c(CN2CCC(CO)(CCOc3ccccc3)CC2)[nH]c2c(Cl)cccc12`, for which the “hERG current change (%, negative = inhibition) at 10uM” value is -60.5%.
In the case of `COc1cc(/C=N/NC(=O)c2cccc(NC(=O)c3ccccc3)c2)ccc1O`, the “hERG current change (%, negative = inhibition) at 10uM” value was determined as 0.15%.
For the compound `Cc1cc(C(=O)Nc2ccccc2N2CCOCC2)no1`, the “hERG current change (%, negative = inhibition) at 10uM” value is -14.1%.
As for `CC(OC(=O)Cc1c[nH]c2ccccc12)C(=O)NC1(C#N)CCCCC1` (stereo not shown), the figure is 0.6%; as for `COc1ccc(CC(=O)Nc2cccc(S(=O)(=O)N3CCCCC3)c2)cc1`, -13.3%.
The value for `C=CCNCCCOc1ccc(Cl)cc1C(C)(C)C.O=C(O)C(=O)O` was -60.8%; that for `CC1CCCC(C)N1C(=O)COC(=O)CNC(=O)c1ccccc1` (stereo not shown) was 2.5%; that for `Fc1ccccc1N1CCN(Cc2cc(-c3ccccc3)on2)CC1` was -6.92%.
As for `CCN1CCN(Cc2c(C)[nH]c3ccc(C(=O)OC)cc3c2=O)CC1`, the figure is -10.7%.
`Cc1nc(N2CCOCC2)nc(Oc2ccccc2F)c1[N+](=O)[O-]`: the “hERG current change (%, negative = inhibition) at 10uM” value is on record as -1.71%.
As for `Cc1ccc(-c2nc(-c3ccccc3)no2)cc1`, the figure is 9.46%; as for `COc1cc(OC)cc(C(=O)NC(=S)Nc2ccc3[nH]c(=O)[nH]c3c2)c1`, -27%; as for `COc1ccc(N2CCN(C(=O)c3cc4c(-c5cccc(OC)c5)nn(C)c4s3)CC2)cc1`, 6.88%.
The value for `COc1ccc(C(=O)NCCCNC(=O)c2cnccn2)cc1` was 14.3%.
As to `CCNC(=O)Oc1ccc(-c2csnn2)cc1`, the “hERG current change (%, negative = inhibition) at 10uM” value is on record as 33.7%.
For the compound `Cc1cccc(C(C#N)c2ccc(Cl)nn2)c1` (stereo not shown), the “hERG current change (%, negative = inhibition) at 10uM” value worked out at 16%.
Turning to `CCOc1cc(C)c(S(=O)(=O)NCc2ccccn2)cc1C`, the “hERG current change (%, negative = inhibition) at 10uM” value is reported as -1.85%.
With `CC1=NNC(=O)C1C(c1ccccc1)C1C(=O)NN=C1C.O=C(O)C(=O)O` (stereo not shown), the “hERG current change (%, negative = inhibition) at 10uM” value came out at 6.31%.
As for `Cc1c(Cl)cccc1NC(=S)NCc1ccccc1`, the figure is 16.5%; as for `CCOC(=O)c1cc(-c2csc(COc3ccc(Cl)cc3)n2)on1`, 8.07%.
Regarding `COc1ccc(/C=N/Nc2ncnc3scc(-c4ccccc4)c23)cc1OC`, the “hERG current change (%, negative = inhibition) at 10uM” value was found to be 7.34%.
The value for `CC(=O)N1CCN(c2ccc(NC(=O)c3ccc(N4CCCC4)c([N+](=O)[O-])c3)cc2Cl)CC1` was -12.4%.
The value for `COC(=O)c1c(NC(=O)C2CC(C)=C(C)CC2C(=O)O)sc2c1CCCCC2` (stereo not shown) was -3.52%.
The value for `COc1ccc(NC(=O)CN(C)C(=O)c2ccccc2SCC(=O)N2CCCC2)cc1` was 10.5%; that for `CCN(c1ccc(OC)cc1)S(=O)(=O)c1cc(-c2cc(C)no2)ccc1C(C)C` was 14.9%; that for `CC(=O)c1c(C)[nH]c(C(=O)NCCc2ccccc2)c1C` was 14.5%.
In the case of `Cc1c(NC(=O)Oc2ccccc2)sc(=S)n1C`, the “hERG current change (%, negative = inhibition) at 10uM” value is 20.7%.
Turning to `CC(C)(C)NS(=O)(=O)c1ccc(CCC(=O)NCc2ccccn2)cc1`, the “hERG current change (%, negative = inhibition) at 10uM” value came out at 13.4%.
As for `CCN(C(=O)CCc1nnc2ccc(NCc3ccco3)nn12)c1ccccc1`, the figure is -6.9%; as for `COCCCNC(=O)CN1C(=O)CSc2ccc(S(=O)(=O)N3CCOCC3)cc21`, 14.5%.
Take `CCOc1ccccc1OCCN1CCCC1`: the “hERG current change (%, negative = inhibition) at 10uM” value was 9.51%.
Take `O=C(c1ccc2c(=O)n(Cc3ccccc3Cl)c(=S)[nH]c2c1)N1CCOCC1`: the “hERG current change (%, negative = inhibition) at 10uM” value was 9.51%.
As for `Cc1ccccc1N(CC(=O)NCCSCc1ccccc1)S(C)(=O)=O`, the figure is -10.7%; as for `O=C(N/N=C/c1c[nH]c2ccc(Br)cc12)c1ccc2c(c1)OCO2`, 21.1%.
Take `COc1ccc(OC)c(C2NC(=O)CCC2[N+](=O)[O-])c1` (stereo not shown): the “hERG current change (%, negative = inhibition) at 10uM” value worked out at 16.4%.
In the case of `Cc1nc(-c2ccccn2)nc(SCC(=O)N2CCOCC2)c1Cl`, the “hERG current change (%, negative = inhibition) at 10uM” value stood at 16.4%.
As for `CCN(Cc1nc2cc(Cl)ccc2c(=O)[nH]1)C(=O)c1cccc(OCc2c(C)noc2C)c1`, the figure is -57.4%; as for `CCc1nnc(NS(=O)(=O)c2ccc(NC(=O)c3cc(Cl)ccc3[N+](=O)[O-])cc2)s1`, 15.2%.
Consider `CS(=O)(=O)Nc1cccc(C2=NN(C(=O)CCCC(=O)O)C(c3cccs3)C2)c1` (stereo not shown), for which the “hERG current change (%, negative = inhibition) at 10uM” value stood at 15%.
As for `COCC1CCCN(C(=O)c2ccc3nc(Cc4cccc(Cl)c4)oc3c2)C1` (stereo not shown), the figure is -12.6%; as for `Cc1cc(/C=N\NC(=O)CC(=O)NC2CCCCC2)c(C)n1-c1cccc(Cl)c1Cl`, -19.6%.
